Laboratory results reported in article PMC4336329 (PLoS ONE, 2015).
In all, about 310,000 compounds went through this assay and about 2,200 (0.71%) showed an effect of 50% or more. Effects have a minus sign here. Some of the results follow.

What follows are compounds tested against human ether-à-go-go-related gene (hERG) potassium channel (human, UniProt Q12809) (assay: primary screen, population patch clamp on CHO cells stably expressing hERG).
human ether-à-go-go-related gene (hERG) potassium channel, sequence (Q12809 whole entry, looked up): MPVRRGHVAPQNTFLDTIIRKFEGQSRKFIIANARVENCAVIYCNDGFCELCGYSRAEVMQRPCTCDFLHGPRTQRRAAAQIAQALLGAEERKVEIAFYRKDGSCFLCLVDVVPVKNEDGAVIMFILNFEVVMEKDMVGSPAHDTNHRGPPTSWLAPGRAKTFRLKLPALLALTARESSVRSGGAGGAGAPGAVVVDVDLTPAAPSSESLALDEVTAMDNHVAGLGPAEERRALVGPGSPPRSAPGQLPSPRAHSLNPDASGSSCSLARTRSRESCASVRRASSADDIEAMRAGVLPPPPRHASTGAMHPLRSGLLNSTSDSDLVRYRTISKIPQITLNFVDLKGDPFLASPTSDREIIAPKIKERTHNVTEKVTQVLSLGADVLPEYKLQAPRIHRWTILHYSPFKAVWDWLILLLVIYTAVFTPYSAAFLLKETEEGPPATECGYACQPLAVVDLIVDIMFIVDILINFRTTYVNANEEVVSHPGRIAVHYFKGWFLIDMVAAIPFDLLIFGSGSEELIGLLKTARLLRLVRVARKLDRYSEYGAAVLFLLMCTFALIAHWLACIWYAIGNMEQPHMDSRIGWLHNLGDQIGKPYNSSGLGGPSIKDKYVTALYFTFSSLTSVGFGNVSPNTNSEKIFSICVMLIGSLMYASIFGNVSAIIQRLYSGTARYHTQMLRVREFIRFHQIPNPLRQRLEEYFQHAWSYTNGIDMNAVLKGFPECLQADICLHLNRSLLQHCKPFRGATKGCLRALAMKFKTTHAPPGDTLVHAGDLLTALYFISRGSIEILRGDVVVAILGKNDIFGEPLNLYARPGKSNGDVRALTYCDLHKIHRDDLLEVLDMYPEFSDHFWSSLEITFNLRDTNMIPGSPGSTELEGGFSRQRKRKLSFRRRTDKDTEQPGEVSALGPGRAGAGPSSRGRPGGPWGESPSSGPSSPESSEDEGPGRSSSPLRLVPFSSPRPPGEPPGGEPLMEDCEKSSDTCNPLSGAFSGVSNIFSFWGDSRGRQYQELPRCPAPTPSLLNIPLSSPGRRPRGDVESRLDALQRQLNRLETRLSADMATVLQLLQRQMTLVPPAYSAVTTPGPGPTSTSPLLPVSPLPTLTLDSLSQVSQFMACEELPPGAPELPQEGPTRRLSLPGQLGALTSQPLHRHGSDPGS
With `CC(=O)N1c2ccc(S(=O)(=O)N3CCC(C(=O)Nc4ccc(F)cc4)CC3)cc2CC1C` (centres unmarked) the “hERG current change (%, negative = inhibition) at 1uM” value was 24.3%. With `Cc1cccc(NC(=O)C(Cc2ccccc2)c2nn[nH]n2)c1C` (centres unmarked) the “hERG current change (%, negative = inhibition) at 1uM” value was 8.45%. For `CCOc1ccc(CCN2C(=O)C3C4CCC(O4)C3C2=O)cc1OCC` (centres unmarked), the “hERG current change (%, negative = inhibition) at 1uM” value was 8.44%. In the case of `CC(C)[C@H](NC(=O)C1(c2ccccc2)CCN(C(=O)OC(C)(C)C)CC1)C(=O)O`, the “hERG current change (%, negative = inhibition) at 1uM” value is reported as 2.17%. With `COc1cccc(OC)c1C(=O)N1CCOCC1` the “hERG current change (%, negative = inhibition) at 1uM” value was -13.7%. With `Cc1cc(C)nc(NS(=O)(=O)c2ccc(NC(=O)c3ccc4c(c3)OCO4)cc2)n1` the “hERG current change (%, negative = inhibition) at 1uM” value was 2.11%. `O=C1c2ccccc2C(=O)N1CCCc1nc2ccccc2c(=O)n1CCCn1ccnc1` was tested, and the “hERG current change (%, negative = inhibition) at 1uM” value was -15.7%. In the case of `COc1ccc(S(=O)(=O)N2CCCCCC2)cc1N(C)S(=O)(=O)c1ccc(Cl)cc1`, the “hERG current change (%, negative = inhibition) at 1uM” value is reported as 6.64%. `N#CC1=C(N)OC2=C(C(=O)CCC2)C1c1ccsc1` (centres unmarked) was tested, and the “hERG current change (%, negative = inhibition) at 1uM” value was 9.36%. In the case of `Cc1c(C)n(CC(O)CNc2ccccc2)c2ccccc12.O=C(O)C(=O)O` (centres unmarked), the “hERG current change (%, negative = inhibition) at 1uM” value is reported as 10%. For `Cc1cc(=O)oc2c(C)c(OCC(=O)N3CCN(c4cccc(Cl)c4)CC3)ccc12`, the “hERG current change (%, negative = inhibition) at 1uM” value was 8.32%. `N#CC1=C(S)N(c2ccccc2)C(c2ccc(-c3cccc(Cl)c3)o2)NC1=O` (centres unmarked) was tested, and the “hERG current change (%, negative = inhibition) at 1uM” value was 2.87%. In the case of `COc1ccc(NC(=O)CCCCCN2C(=O)c3cccc([N+](=O)[O-])c3C2=O)c(OC)c1`, the “hERG current change (%, negative = inhibition) at 1uM” value is reported as 14.2%. With `CC(=O)Nc1sc2c(c1C(c1ccc(F)cc1)N1CCOCC1)CCCC2` (centres unmarked) the “hERG current change (%, negative = inhibition) at 1uM” value was 4.96%. With `COc1ccc(C2=C(C=Nc3c(C)n(C)n(-c4ccccc4)c3=O)C(c3ccccc3C)c3ccccc3O2)cc1OC` (centres unmarked) the “hERG current change (%, negative = inhibition) at 1uM” value was 12%. `CC(C)NC(=O)COc1nncc2ccccc12` was tested, and the “hERG current change (%, negative = inhibition) at 1uM” value was 17.6%. `COc1ccccc1C(=O)NCCC(=O)N(C)CC(=O)Nc1c(Cl)cccc1Cl` was tested, and the “hERG current change (%, negative = inhibition) at 1uM” value was 7.18%. In the case of `O=C(CCN1C(=O)CSc2ccccc21)Nc1cccc(C(F)(F)F)c1`, the “hERG current change (%, negative = inhibition) at 1uM” value is reported as -0.696%. For `COC(=O)CNC(=O)COC(=O)c1ccc(Cl)nc1`, the “hERG current change (%, negative = inhibition) at 1uM” value was 6.99%. With `CC(/C=N/n1c(-c2ccco2)n[nH]c1=S)=C\c1ccccc1` the “hERG current change (%, negative = inhibition) at 1uM” value was 10.3%. For `COc1ccc(C2=NOC(C(=O)N3CCOCC3)C2)cc1OC` (centres unmarked), the “hERG current change (%, negative = inhibition) at 1uM” value was 15.2%. In the case of `COc1ccc(C(=O)Nc2c(O)ccc3ccccc23)cc1OC`, the “hERG current change (%, negative = inhibition) at 1uM” value is reported as 12.3%. With `OCC1(CCc2ccccc2)CCN(Cc2cccn2-c2cccnc2)CC1` the “hERG current change (%, negative = inhibition) at 1uM” value was -23.3%.
